From PMC12136788 come the findings set out here.

Some of the results follow.

Sequences and labels used below:
T1: UNK ZnF1-3 (human, UniProt Q9C0B0 31-174)
T1 sequence: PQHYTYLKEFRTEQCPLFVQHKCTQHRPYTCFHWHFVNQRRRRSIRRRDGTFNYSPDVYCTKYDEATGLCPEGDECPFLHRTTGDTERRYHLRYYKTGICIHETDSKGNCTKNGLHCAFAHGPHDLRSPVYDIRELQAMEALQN

B1: 79327668_79327788_2640_ncRNA_ENSMUSG00000035835_ENSMUST00000166057|mouse|control|control (ssRNA)
RNA: GGGAGUUCUACAGUCCGACGAUCCUGCCAGCCCGCCCACCUGGCGCCUUAGGGUGGAUUCUCUGCUGCCUGCACCUAGGGCCCCUUCACUUGCACCUGGUGGGGGCAGACCCUCCCCAGUGGCCAGGUUGACAGUGGCCACUGCAACAGAGGAUUGAGCAUCA
B2: chr7:63234579:63234580:-_ENSMUSG00000047037_ENSMUST00000052204|mus_hu|motif|central (ssRNA)
RNA: GGGAGUUCUACAGUCCGACGAUCCGUUUGGGCUGCAGAGGGCUGGCUGGGCCUCUGCUCUGGUGCUGAGCCAUGCUCCCCGCGGUCCACCAGACCACCUGUUACUAUCCAGUCAAUUCUAACACCAUGAUCGAGGACCUCUUCCAACAGAGGAUUGAGCAUCA
B3: chr6:114270206:114270207:-_ENSG00000196591_ENST00000368632|hu_mus|FALSE|FALSE (ssRNA)
RNA: GGGAGUUCUACAGUCCGACGAUCCACUACUUCUACACAUUUAGCAUGACCUUUGACAGUUAGAUUGAAACAACCAAGCCUGUCCCCAGACAGGGAGUCUGCGCCACACUGCAGCACCACCGCGCUAGGCUGGUACAUCUCCAUCAACAGAGGAUUGAGCAUCA
B4: chr13:21172813:21172814:+_ENSG00000032742_ENST00000351808|hu_hu|motif|central (ssRNA)
RNA: GGGAGUUCUACAGUCCGACGAUCGAUAUUUCCCAUAUUCAUUUUCAAUAUUCCUGCAUUGCUAAACAUCUUAUUUUUGACGGUAACUUGAUAAGUGUUAAGUGCUUCGGCAUACAUUUCAUUAACUGAAUACUGACUGGCCAACAACAGAGGAUUGAGCAUCA
B5: chr17:56167648:56167649:+_ENSG00000264364_ENST00000579991|hu_mus|motif|central (ssRNA)
RNA: GGGAGUUCUACAGUCCGACGAUCUGUUCUCACCCUCACAACAGGGAACAUAAAAGCCCACUUAGAACUAACUGCCCUCGGCUUCCCAUACACCCUAGAGAUUCCACUUAUCCUGCCCCUUCCCACCCUUCUACCCCAAACCCACAACAGAGGAUUGAGCAUCA
B6: chr7:140404665:140404666:+_ENSG00000090266_ENST00000247866|hu_hu|hu_hu_hu_mus_False|58_58 (ssRNA)
RNA: GGGAGUUCUACAGUCCGACGAUCUGCUCCUACUCGUCCAGAGAGUUUACAGUGUCAGUCCUCGUCAUCAGGAGGGAUACCUAAUUCUUCAUCUGUCCACUGUGAAGGAUCUGGAUAUGAAAAGUGACCCAGCACAGCAUCCGACAACAGAGGAUUGAGCAUCA
B7: chr11:94154035:94154036:-_ENSMUSG00000020863_ENSMUST00000107820|mus_hu|FALSE|FALSE (ssRNA)
RNA: GGGAGUUCUACAGUCCGACGAUCAUAUUUAAGUUUUUAAAGCAUAUGUCUCUGCCAAUGUACCAACACAAGAUGGACUUAAUACCAAAAAGAAAAAAAAAAACAGUUCAACCUUUUUAUUAAAAAAAAAAAAGAAAUGACAUCCAACAGAGGAUUGAGCAUCA
B8: chr7:65617436:65617437:+_ENSG00000241258_ENST00000415001|hu_hu|FALSE|FALSE (ssRNA)
RNA: GGGAGUUCUACAGUCCGACGAUCUUCUUCUCCCCAAGGCACAAAUAUUUCUUUUUAACUUAUUUUUGUGAUGUACCCAACUAACCACAAAGCCAGGCCUGCUGGGAUGAGGAUAAAAAUCAAAUAAACAAUCCUCUCAACGUCCAACAGAGGAUUGAGCAUCA
B9: chr14:58718896:58718897:+_ENSG00000100567_ENST00000216455|hu_mus|motif|central (ssRNA)
RNA: GGGAGUUCUACAGUCCGACGAUCUCGAUCAACAUUAAAAAGACGUUUAUUGGAGCCUUCUUCAUAAAGUUUAGAAAGGACGGGUUUUUCUACCCCAAACACAACACCAUCUUUACAUCUGAUCCCAAUAGCUGUACUACUGUUCAACAGAGGAUUGAGCAUCA
B10: chr11:87793471:87793472:-_ENSMUSG00000020483_ENSMUST00000020775|mus_mus|mus_mus_mus_hu_False|28_108 (ssRNA)
RNA: GGGAGUUCUACAGUCCGACGAUCUGGGGGCUGGGGAAAAAGAAUAAGCUGGAUCCCCCACCCCCCCACAUUGUCAACCCUACACGAGAGUUUUGAAGGCGACUCAUGAAUCAGCAGAGCUCAAACGGCAAUGACCACCCCACCCAACAGAGGAUUGAGCAUCA
B11: 23559281_23559821_326_CDS_ENSG00000100813_ENST00000605057|human|control|control (ssRNA)
RNA: GGGAGUUCUACAGUCCGACGAUCCAUCUCGUCCUCCGACUCAGCUGAAGCUUCUUCAAGUUCUGCAGCUUCUCGAGCUUCACGUUCCAGACGCUGCCUAAGUAGCUCCUGCUGCUUUUCCAGAUACUGUUUUAUGAAACUGUUCAACAGAGGAUUGAGCAUCA
B12: chr2:9570881:9570882:+_ENSG00000119203_ENST00000238112|hu_mus|hu_hu_hu_mus_False|88_108 (ssRNA)
RNA: GGGAGUUCUACAGUCCGACGAUCACUUGUCUUCUGUAGGAACCAGGGCAGAGCUCCACAGUGAUCCAAAUGGAAAUGACUGAUCAACAGAAGGUCGAUCUCAGCUGGGUCGAUAAGGUCAAUGUAAGGAAGGGCAUCCAUUCCCAACAGAGGAUUGAGCAUCA
B13: chr11:20202655:20202656:-_ENSMUSG00000020142_ENSMUST00000109594|mus_hu|FALSE|FALSE (ssRNA)
RNA: GGGAGUUCUACAGUCCGACGAUCUGUAGUUAAUAGUUAAGUUCCCCUCUAUCCAAACACAAACUUGCUUGGCUUGGAGCUAAAACUAUACACACACGCACACACACACAUGCAUAUACACAACACACAUGUGUGUAUAGAUAUCAACAGAGGAUUGAGCAUCA
B14: chr16:17153567:17153568:-_ENSMUSG00000038965_ENSMUST00000090192|mus_hu|FALSE|FALSE (ssRNA)
RNA: GGGAGUUCUACAGUCCGACGAUCUGCACAGCAUCCUCCUGACUAGCAGGCCCCCCAUUUCGGGGCCACCACAGACCUGUGAUUAUAGGGCUUCUCUGUGCAGGCCAGGCCAGAGGUCAGUUACACACACUGACAUCAGGGCUUCAACAGAGGAUUGAGCAUCA
B15: chr5:37680062:37680063:+_ENSMUSG00000029121_ENSMUST00000031004|mus_hu|mus_mus_mus_hu_False|8_78 (ssRNA)
RNA: GGGAGUUCUACAGUCCGACGAUCUUUGGGUGUAGCUGGUACCUCGUACACAGGACCAUCGUACAUGCCCCUGGAAACCCCUUGCAAUCCAAAAACCUUAUUCCUGAUUUUGACGCGCUGGUACAGGUGCUCUGGGAACGCCUUCAACAGAGGAUUGAGCAUCA
B16: 21397477_21397676_372_CDS_ENSMUSG00000048429_ENSMUST00000062125|mouse|control|control (ssRNA)
RNA: GGGAGUUCUACAGUCCGACGAUCGCGGCCCGGUCGAGCUCGCGCCGCAGCCGCCGCGUCCCCGCACGCCUCAGCGUAGUCCCGGAGCAGCGCGCCGGCCCAGGUGCUCAGUCGCGUCCACAGCCCUGGCUUAACCGCCACCGUCAACAGAGGAUUGAGCAUCA
B17: 127960156_127962624_351_CDS_ENSMUSG00000025366_ENSMUST00000026427|mouse|control|control (ssRNA)
RNA: GGGAGUUCUACAGUCCGACGAUCAUCUGGGAAGCUGACCCAGGCAGGUAGUUCCCGGUGGCUCAUAUAAAGCGUCUCUGCGGUGAUCCGCUCCUCGUCAUCCAGCAGCUGCCUCGCUGCCCUCAGGCUCCGUUCUUUCCCAUCCAACAGAGGAUUGAGCAUCA
B18: 95062980_95063100_2134_CDS_ENSMUSG00000022454_ENSMUST00000166170|mouse|control|control (ssRNA)
RNA: GGGAGUUCUACAGUCCGACGAUCCCCCUCGUGCACGCAGUCCCCAGUGCAGUUCUUCCCAUGGGGACACCGGCAAUCGUAUCCCCCGUCCAAGUUGAAGCAAAUGGUGUCGUUGGUGCAGCUGUGCCUCCCAGUCCCGCAUUCCAACAGAGGAUUGAGCAUCA
B19: 32537986_32538106_146_5pUTR_ENSMUSG00000029765_ENSMUST00000115096|mouse|control|control (ssRNA)
RNA: GGGAGUUCUACAGUCCGACGAUCGCGCGGAGCUGCGGUGGUAGCAGCGACGGCGGCGGCUAGCGCUGCGGCGGCCAAGAGCGCGGCCGUAGUCCAAGCCGAGCCUCCCAGGCGCGUCCCCGGCCCCCCGGGCGGGCUGCUCGCCAACAGAGGAUUGAGCAUCA
B20: 234363454_234365599_2382_CDS_ENSG00000077044_ENST00000264057|human|control|control (ssRNA)
RNA: GGGAGUUCUACAGUCCGACGAUCCAGCAACUCUUUGGUUCCAAGAACUCCAUACCACAUCAUGUUCUUGGUUCGGCUCCUGCACUUCUCUGGGUGCUCAUCGCGCUUGUUGUUAAAGUCCAGGGAUAUCUUCGCAUCCAGGCCCAACAGAGGAUUGAGCAUCA
B21: chr9:96246283:96246284:-_ENSMUSG00000032412_ENSMUST00000034983|mus_hu|FALSE|FALSE (ssRNA)
RNA: GGGAGUUCUACAGUCCGACGAUCCUGAAGCAUAACCCACAUCGUGAAUGAGAAGAGUGCAGCCAGGAACCCAUAAAAAACUAGGUAGAAGAGCAAGAUCAAACCCCAGCUCUUGGCGGUGCGCCCCAGGAAUUCUCCGGUGGUCAACAGAGGAUUGAGCAUCA
B22: chr15:91426070:91426071:+_ENSG00000140564_ENST00000268171|hu_hu|FALSE|FALSE (ssRNA)
RNA: GGGAGUUCUACAGUCCGACGAUCGGCAGCCAGGGAGGAGCAGGGCGGACGGUGGGUGUGAGAACGUGGGUAGUCCAGCUGCUACCCCCAUUAAAAAUACAAAAACAAAUCAUCAGCAUCUAAAGUGAAAUAAUCACAAAGUGACAACAGAGGAUUGAGCAUCA

In this assay the target is T1, UNK ZnF1-3. Put plainly: nsRBNS (natural sequence RNA bind-n-seq); RBNS binding buffer (assumed for nsRBNS): 25 mM Tris pH 7.5, 150 mM KCl, 3 mM MgCl2, 0.01% Triton X-100, 500 ug/ml BSA, 20 U/ml SUPERase-In, 4 C; UNK is unkempt and MSI1 is Musashi-1; names of the RNAs are library labels; protein concentration not given here; high values mean tight binding.
With B1, the binding signal was determined as 0.792 enrichment R.

For the molecule B2, the binding signal stood at 0.525 enrichment R.

The molecule B3 displayed a binding signal of 1.17 enrichment R.

Take B4: the binding signal stood at 0.999 enrichment R.

Take B5: the binding signal was 2.11 enrichment R.

B6 returned a binding signal of 1.06 enrichment R.

With B7, the binding signal was 2.44 enrichment R.

For the molecule B8, the binding signal came to 1.95 enrichment R.

On to B9, for which the binding signal was determined as 0.888 enrichment R.

Molecule B10 had a binding signal of 1.03 enrichment R.

B11 registered a binding signal of 0.453 enrichment R.

In turn, B12 had a binding signal of 1.52 enrichment R.

Take B13: the binding signal was 0.28 enrichment R.

Take B14: the binding signal was found to be 0.965 enrichment R.

B15 showed a binding signal of 0.702 enrichment R.

B16: the binding signal was 0.759 enrichment R.

B17: the binding signal came out at 0.571 enrichment R.

In the case of B18, the binding signal came to 1.01 enrichment R.

Molecule B19 gave a binding signal of 0.647 enrichment R.

B20 had a binding signal of 0.751 enrichment R.

Molecule B21 displayed a binding signal of 1.6 enrichment R.

B22 came in with a binding signal of 1.67 enrichment R.
